# According to PubChem BioAssay AID1671193 (National Center for Advancing Translational Sciences (NCATS), 2021):
# The campaign covered roughly 150,000 compounds. About 180 (0.12%) were called active. The inconclusive results got no clear call from the source; some entries with a clear call stand among them for comparison. Calls come from the whole dose curve; as a rule, active = well fitted cell-killing curve with a large enough effect; inconclusive = small, poorly fitted or top-dose-only effect, or effect the other way; inactive = flat fitted curve, though single readings scatter. Where the call is inconclusive, the potency comes from a doubtful curve fit.
# Assay: GF-AFC viability counterscreen for inhibitors of alpha-synuclein gene (SNCA) expression; note: nearly all actives have a fitted effect of over 30% in size;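 for activity change, negative = cytotoxicity: 0% = DMSO-treated cells and -100% = medium-only wells without cells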
# Details: HEK-293-SNCA-luc viability, GF-AFC fluorescence, 24 h; activity change, negative = cytotoxicity: at 57.1 µM (top of the series) unless noted
# Outline: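 HEK-293-SNCA-luc cells (1500/well) plated 24 h, then exposed 24 h to a dilution series; GF-AFC added 30 min at 37C, fluorescence 405/540 nm; normalised to medium-only and DMSO wells, Hill fit.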
# Potency is the fitted concentration of half-maximal effect; tags give direction and shape of the fitted curve.
Compound,Potency,"activity change, negative = cytotoxicity"
CC1(c2noc(-c3ccccc3)n2)CCN(C(=O)CCc2cc(Cl)no2)CC1,inactive,
Cc1ccc(C)c(N2C(=O)N(Cc3cc(=O)n4ccccc4n3)c3ccccc3S2(=O)=O)c1,"inconclusive: 31.6 µM [cytotoxic, partial curve, poor fit]",
CC(C)(C)c1ccc(-c2cc(C[C@H]3CNCC[C@H]3CC(=O)Nc3nccs3)no2)cc1,"inconclusive: 28.2 µM [cytotoxic, single point]",
Clc1ccc(Oc2cccc(CN3CCN(C4CCNC4)CC3)c2)cc1 (stereo unspecified),inactive,
COc1cc(OC)cc(C(=O)Nc2ccc3nc(N4CCCCC4)cc(C)c3c2)c1,inactive,
CCN1CCN(C(=O)N[C@@H](C(=O)N[C@@H]2C(=O)N3[C@@H]2SC(C)(C)[C@@H]3C(=O)O)c2ccccc2)C(=O)C1=O,"inconclusive: 1.89 µM [rising, partial curve, poor fit]",
Cc1cc2nc3n(c(=O)c2n1CC(=O)NC1CCC(C)CC1)CCCCC3 (stereo unspecified),inactive,
CC(C)(C)OC(=O)N1CC(NCc2ccc(-c3ccc(OC(F)(F)F)cc3)cc2)C1,"inconclusive: 20 µM [cytotoxic, partial curve, poor fit]",
CC(=O)Nc1cc(NC(C)=O)cc(-c2nc3ccccc3[nH]2)c1,"inconclusive: 1.41 µM [cytotoxic, full curve, poor fit]",
Cc1cccc(-n2c(=O)c3c4c(sc3n3cnnc23)CCCC4)c1,"inconclusive: 2.51 µM [cytotoxic, full curve, poor fit]",
COc1ccc(C(=O)N2C[C@@H](Oc3ccccc3)C[C@H]2C(=O)N2CCCC2)cc1,"inconclusive: 2 µM [cytotoxic, full curve, poor fit]",
Cc1ccc(CNC(=O)c2ccc(Cn3c(SCc4ccccc4F)nc4cccnc43)cc2)cc1,"inconclusive: 39.8 µM [cytotoxic, single point]",
c1ccc(-c2nnc([C@H]3CCN(C4CCOCC4)C3)o2)cc1,inactive,
CCOC(=O)c1cc2c(=O)n3ccccc3nc2n(CCCOC)c1=NC(=O)C(C)Oc1ccccc1 (stereo unspecified),"inconclusive: 1.78 µM [rising, full curve, poor fit]",
COc1cccc(C(=O)NC2CCN(c3nccc(Nc4ccccc4Cl)n3)CC2)c1,"inconclusive: 25.1 µM [cytotoxic, partial curve, poor fit]",
COc1ccc(-c2nc(Cn3c(SCc4ccc(C)cc4)nc4cccnc43)c(C)o2)cc1OC,"inconclusive: 25.1 µM [cytotoxic, partial curve, poor fit]",
COCC(NC(=O)c1cc(S(N)(=O)=O)ccc1F)c1ccnn1C (stereo unspecified),inactive,
COC[C@@H]1CN(S(=O)(=O)c2ccccc2)C[C@H]1c1nc(C)no1,"inconclusive: 39.8 µM [cytotoxic, single point]",
Cn1nc(C2CC2)cc1NC(=O)c1ccc(Cl)nc1,inactive,
COCCC(=O)N1C[C@@H](COC)[C@H](c2nc(C)no2)C1,"inconclusive: 8.91 µM [cytotoxic, single point]",
O=C(NCc1ccc(Cl)cc1)c1c[nH]c2cccnc12,"inconclusive: 12.6 µM [cytotoxic, partial curve, poor fit]",

Compound,Potency,"activity change, negative = cytotoxicity"
Cc1cc(C2CCC2)nc(N2C[C@@H](C)[C@@](C)(O)C2)n1,inactive,
O=C(Nc1ccccc1F)N1CCC(N2C(=O)C3(CCCCC3)C2c2ccccc2)CC1 (stereo unspecified),"inconclusive: 0.631 µM [cytotoxic, partial curve, poor fit]",
COc1cc2c(cc1OC)C(COc1ccc(F)cc1)N(C(=O)Cc1ccc(F)cc1)CC2 (stereo unspecified),"inconclusive: 31.6 µM [cytotoxic, single point]",
COc1ccccc1C(=O)NC1CCN(c2cc(-c3cccs3)[nH]n2)C1 (stereo unspecified),"inconclusive: 3.16 µM [rising, single point]",
Cc1ccc(NC(=O)N(Cc2cn(C)c3ccccc23)C2CCCCC2)cc1C,"inconclusive: 3.16 µM [cytotoxic, single point]",
Cc1cc(=O)n(CC(=O)Nc2ccc(F)cc2)c(N2CCN(c3ccccc3)CC2)n1,inactive,
Cn1ncc2c(C(=O)NCC3CC3)cc(-c3ccc(Cl)nc3)nc21,"inconclusive: 8.91 µM [rising, partial curve, poor fit]",
CN1CCCC(n2nc(Cc3ccc(Cl)cc3)c3ccccc3c2=O)CC1 (stereo unspecified),"inconclusive: 19.2 µM [cytotoxic, partial curve, poor fit]",
COC(=O)c1ccnc(-c2cc(C(=O)Nc3ccc(C4(N)CC4)cc3)ccn2)c1,inactive,
COc1ccc(C(=O)CN2C(=O)N(c3ccc(C(C)=O)cc3)S(=O)(=O)c3ccccc32)cc1,"inconclusive: 17.8 µM [cytotoxic, single point]",
COc1ccc(-c2nc3c(C)cccc3cc2CN2CCC[C@H]2CO)cc1OC,"inconclusive: 5.01 µM [cytotoxic, full curve, poor fit]",
O=C(NC1CCN(c2cc(-c3cccs3)[nH]n2)C1)c1cccc2[nH]ccc12 (stereo unspecified),"inconclusive: 14.1 µM [cytotoxic, partial curve, poor fit]",
c1ccc(CO[C@@H]2CO[C@H]3[C@@H]2OC[C@@H]3n2nnnc2SCc2ccco2)cc1,"inconclusive: 56.2 µM [cytotoxic, single point]",
COc1cncc(N2C[C@H]3[C@H](C2)[S+](=O)([O-])C(C)(C)C(=O)N3Cc2ccccc2)c1,inactive,
OCC1CN(Cc2cc(F)cc(Br)c2)CC12CCNCC2 (stereo unspecified),,inactive: 3.42% [at 12.5 µM]
COc1ccc(C(=O)N2CCCC3(COc4ccccc4C(=O)N3)C2)cc1 (stereo unspecified),"inconclusive: 12.6 µM [cytotoxic, partial curve]",
Cn1ccc2c(C(=O)NCCc3cnc[nH]3)nc(-c3cccc(C(F)(F)F)c3)cc21,"inconclusive: 22.4 µM [cytotoxic, partial curve, poor fit]",
COc1ccc(-c2nc3sc(CCNC(=O)c4cc(Cl)ccc4OC)c(C)n3n2)cc1,"inconclusive: 25.1 µM [cytotoxic, partial curve, poor fit]",
O=C(NCc1cccnc1)c1cc(-c2ccccc2F)cc2c1OCCN2Cc1cccnc1,"inconclusive: 17.8 µM [cytotoxic, partial curve, poor fit]",
COc1ccc(N2CCN(CCCNC(=O)c3cnn(-c4ccc(F)cc4)c3-n3cccc3)CC2)cc1,"inconclusive: 0.501 µM [rising, full curve, poor fit]",
CC(C)CCC(C)Nc1ncnc2c1CN(C1CCCNCC1)C(=O)CN2C (stereo unspecified),inactive,

Compound,Potency,"activity change, negative = cytotoxicity"
Fc1cccc(CN2CCNc3cc(Nc4cccnc4)ncc3C2)c1,"inconclusive: 20 µM [cytotoxic, partial curve, poor fit]",
CCc1ccc(-n2nc(CO)c(C(=O)NCc3ccccn3)n2)cc1,inactive,
CCC(C)NC(=O)Cn1c(=O)n(-c2ccc(C)cc2)c(=O)c2ccccc21 (stereo unspecified),"inconclusive: 28.2 µM [cytotoxic, partial curve, poor fit]",
CCNc1ncc2nc(-c3ccc(OC)cc3)c(=O)n(-c3ccc(OC)cc3)c2n1,"inconclusive: 12.6 µM [rising, partial curve, poor fit]",
Cn1ncc2c(C(=O)NCc3cccc(Cl)c3)cc(-c3ccc(F)cc3)nc21,"inconclusive: 25.1 µM [cytotoxic, single point]",
CCOc1cc(C(C)(C)C)ccc1C1=NC(C)(c2ccc(Cl)cc2)C(C)(c2ccc(Cl)cc2)N1C(=O)N1CCN(CCCS(C)(=O)=O)CC1 (stereo unspecified),"inconclusive: 18.9 µM [cytotoxic, single point]",
O=C(Nc1ccc(NC(=O)c2cccs2)cc1)c1ccc(Br)cc1,"inconclusive: 39.8 µM [cytotoxic, single point]",
Cc1nc(-c2ccccc2)sc1CCNC(=O)c1ccco1,"inconclusive: 39.8 µM [rising, partial curve, poor fit]",
NC(=O)N1CCC(CC(=O)N2CCC(C3c4ncc(Br)cc4CCc4cc(Cl)cc(Br)c43)CC2)CC1 (stereo unspecified),"inconclusive: 37.7 µM [cytotoxic, single point]",
CC(C)(CC(=O)OCC(=O)Nc1ccc(F)c(Cl)c1)CC1=NS(=O)(=O)c2ccccc2N1,"inconclusive: 14.1 µM [cytotoxic, single point]",
COc1ccccc1C(=O)N[C@H]1[C@H](O)[C@H](O)C[C@@H]1c1ccc(N2CCOCC2)nc1,inactive,
CC(C)(C)c1ccc(-c2cc(C[C@H]3CNCC[C@H]3CC(=O)N3CCN(Cc4ccccc4)CC3)no2)cc1,"inconclusive: 39.8 µM [cytotoxic, single point]",
Cc1ccccc1NC(=O)c1sc2nc(-c3ccncc3)ccc2c1N,"inconclusive: 22.4 µM [rising, partial curve, poor fit]",
COc1ccc(Oc2ncc3ncc(=O)n(Cc4ccc(F)cc4)c3n2)cc1,"inconclusive: 39.8 µM [cytotoxic, partial curve, poor fit]",
COc1ccc(-c2noc(-c3nc(Cc4cccc(F)c4)no3)n2)cc1,inactive,
CCc1ccc(NC(=O)Cn2c(C)ccc(NS(=O)(=O)c3ccccc3)c2=O)cc1,"inconclusive: 8.91 µM [cytotoxic, single point]",
Cc1cn2nc(C(=O)NCc3ccccc3)cc2c(N(C)Cc2ccccc2)n1,inactive,
O=C(C1CCCN(c2nccc(Nc3ccccc3F)n2)C1)N1CCCC1 (stereo unspecified),,inactive: -19.4% [at 12.5 µM]
COc1ccc(-n2c(=O)c(-c3cccs3)nc3cnc(N(C)C)nc32)cc1,"inconclusive: 25.1 µM [rising, single point]",
